From PubChem BioAssay AID493131 (Broad Institute, 2011)
The campaign covered roughly 340,000 compounds. About 3,300 (0.97%) were called active. Inconclusive means that the source gave no clear call. Such entries were picked first, then a sample of the others.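 How the source made its calls: active means mean activation above about 17%, with every replicate also reaching it (limit read from the data, passing the limit was not always enough); inconclusive means only one of the two conditions met; inactive means the rest.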

Each molecule was assayed against Protein FosB (Mus musculus) (UniProt P13346) (assay: enhancers of mouse delta FosB DNA binding – biochemical, fluorescence polarization, TAMRA-CDK5 oligo, single point, primary screen (AID 493131;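 further: fluorescence polarization rise as delta FosB binds a TAMRA Cdk5 AP-1 oligo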)). Conditions: purified delta FosB, at 25 µM, stronger effect = higher value, percent of positive-control signal above neutral wells.
Sequence of UniProt P13346 (P13346 whole entry, looked up): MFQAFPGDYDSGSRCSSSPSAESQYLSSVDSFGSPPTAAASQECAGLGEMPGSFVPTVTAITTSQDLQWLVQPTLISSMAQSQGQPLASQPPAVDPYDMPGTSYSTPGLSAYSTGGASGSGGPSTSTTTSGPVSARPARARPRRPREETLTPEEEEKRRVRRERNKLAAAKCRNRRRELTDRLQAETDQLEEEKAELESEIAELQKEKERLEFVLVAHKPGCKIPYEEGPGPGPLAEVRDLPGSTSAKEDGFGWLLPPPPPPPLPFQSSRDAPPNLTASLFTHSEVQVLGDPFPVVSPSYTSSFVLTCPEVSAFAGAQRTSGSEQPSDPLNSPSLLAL
In the case of `Nc1nc(CSc2nnnn2-c2ccc(F)c(Cl)c2)nc(N2CCOCC2)n1`, the activation is reported as inconclusive: 20.4%.
With `CCNc1c(NS(=O)(=O)c2ccc(C3CCCCC3)cc2)c(=O)oc2ccccc12` the activation was inconclusive: 18.2%.
For `COc1ccc(CN2CCC3CC2c2cc(-c4cccc(C)c4)ccc23)cc1` (stereo not drawn), the activation was inconclusive: 17.9%.
`COc1ccc(CNCCC(c2ccc(F)cc2)c2ccc(OC)cc2)cc1` (stereo not drawn) was tested, and the activation was active: 20.7%.
With `Cc1ccc(S(=O)(=O)/N=C(\N)Nc2nc(C)c3cc(C)c(C)cc3n2)cc1` the activation was inconclusive: 20.5%.
For `Cc1cc(NC(=O)CN2C(=O)/C(=C/c3ccccc3F)SC2=S)no1`, the activation was inconclusive: 18.6%.
`Cc1ccc(NC(=O)c2cccs2)cc1NC(=O)c1ccccc1Cl` was tested, and the activation was inconclusive: 18.9%.
For `CN(Cc1ccccc1)S(=O)(=O)c1ccc(Cl)c(C(=O)NCc2ccc3c(c2)OCO3)c1`, the activation was inconclusive: 17.5%.
In the case of `O=C(Nc1cccc2ccccc12)/C(=C/c1cccc([N+](=O)[O-])c1)NC(=O)c1cccs1`, the activation is reported as active: 24%.
For `Cn1c(-c2ccc(Cl)cc2)cnc1NCc1cc2c(cc1[N+](=O)[O-])OCO2`, the activation was inconclusive: 28.6%.
`Cc1c(C(c2ccc(O)cc2)c2c(C)n(C)n(-c3ccccc3)c2=O)c(=O)n(-c2ccccc2)n1C` was tested, and the activation was inactive: -2%.
With `CN(C)CCN(C(=O)/C=C/c1cccs1)c1nc2ccc(Br)cc2s1` the activation was inconclusive: 25.3%.
`O=C(Nc1cccc(NC(=S)NC(=O)c2cccs2)c1)c1ccccc1` was tested, and the activation was inconclusive: 18%.
With `CCCCSc1nc2c(cnn2-c2ccc(F)cc2)c(=O)[nH]1` the activation was inconclusive: 21.8%.
`O=C(c1ccc(S(=O)(=O)N2CCOCC2)cc1)N(Cc1ccco1)Cc1cccs1` was tested, and the activation was inactive: -7.62%.
For `Cc1ccc(S(=O)(=O)N(C)CC(=O)OCC(=O)c2ccc3c(c2)NC(=O)CO3)cc1`, the activation was inactive: -1.28%.
In the case of `CC(=O)n1c(=O)oc2ccccc21`, the activation is reported as inactive: -3.62%.
For `Cc1cccc(NC(=O)CN2C(=O)S/C(=C\c3ccccn3)C2=O)c1`, the activation was active: 40.7%.
`O=C(CCCN1C(=O)/C(=C\c2ccccc2)SC1=S)Nc1ccccc1O` was tested, and the activation was inconclusive: 19.7%.
With `COc1cc(C2c3c(oc4cc(C)c(C)cc4c3=O)C(=O)N2c2cc(C)ccn2)ccc1O` (stereo not drawn) the activation was inconclusive: 21.3%.
With `O=C(Nc1nc(-c2ccccc2)nc2ccccc12)c1ccc(F)cc1` the activation was active: 22.4%.
In the case of `CCOc1ccc2nc3cc(N=Nc4ccc(N)nc4N)ccc3c(N)c2c1`, the activation is reported as inconclusive: 32.5%.
In the case of `Cc1nc2ccc3nc(NC(=O)C4COc5ccccc5O4)sc3c2s1` (stereo not drawn), the activation is reported as inconclusive: 16%.
With `CCC(C)C(NC(=O)C1CCC(C)CC1)C(=O)Nc1cc(OC)ccc1OC` (stereo not drawn) the activation was inactive: 7.95%.
For `CCNc1nc(Cl)nc(NNC(=O)C(C)Oc2ccccc2)n1` (stereo not drawn), the activation was inconclusive: 16.1%.
`CCN(Cc1ccccc1)c1ccc(/C=N/N=C(N)N)cc1` was tested, and the activation was inconclusive: 21.5%.
For `COc1ccc(Cl)c2sc(N(CCN(C)C)C(=O)c3ccc4c(c3)OCCO4)nc12`, the activation was inconclusive: 18.7%.
With `CCNc1nc(NCC)nc(N(C#N)CCOc2ccccc2)n1` the activation was inactive: -3.8%.
`O=C(CSc1ccccn1)N/N=C/c1cccc([N+](=O)[O-])c1` was tested, and the activation was inactive: -3.17%.
In the case of `Cc1nc2c(ccc3nc(NC(=O)C(c4ccccc4)c4ccccc4)sc32)s1`, the activation is reported as inconclusive: 25.7%.
In the case of `COC(=O)c1c(NC(=O)COC(=O)c2ccc(O)cc2)sc2c1CCCCC2`, the activation is reported as inconclusive: 22.6%.
For `Cc1ccc(NC(=O)CC2S/C(=N/N=C/c3ccco3)NC2=O)cc1Cl` (stereo not drawn), the activation was active: 32.7%.
With `CCN(c1ccc(OC)cc1)S(=O)(=O)c1ccc(-c2ccc(=O)[nH]n2)o1` the activation was inconclusive: 19.2%.
In the case of `CC/C(=N\NC(=O)CSCc1ccccc1Br)c1ccc2c(c1)OCCO2`, the activation is reported as active: 20.3%.
With `CCOc1ccc(NC(=O)c2ccc(NC(=O)c3ccc(CN4CCOCC4)cc3)cc2)cc1` the activation was inconclusive: 23%.
In the case of `Cc1cc(C)n(-c2nc(NCCN(C)C)c3c4c(sc3n2)CCCC4)n1`, the activation is reported as inconclusive: 17.7%.
In the case of `O=C(Cn1[nH]c(=O)c2ccccc2c1=O)Nc1cccc(-c2nnc3n2CCCCC3)c1`, the activation is reported as inconclusive: 18.4%.
With `O=C(N/N=C/c1cn(-c2ccccc2)nc1-c1ccc2c(c1)OCCO2)c1ccncc1` the activation was inconclusive: 19.3%.
With `O=C(Nc1ccc(Cl)cc1)C1CC(=O)n2c(nc3ccccc32)N1` (stereo not drawn) the activation was inconclusive: 17.6%.
With `CCOc1ccc(-c2nnn(CC(=O)NCc3ccc(F)cc3)n2)cc1OCC` the activation was active: 41.2%.
With `COc1ccc(/C=C2/SC(=O)N(CCC(=O)Nc3ccc(S(=O)(=O)Nc4nccs4)cc3)C2=O)cc1` the activation was inconclusive: 45.2%.
With `Cc1ccc(CNC(=O)/C=C/c2ccc(S(=O)(=O)NCc3ccco3)cc2)cc1` the activation was inconclusive: 16.5%.
In the case of `CC(C)C[C@H]1CN([C@@H](CC(C)C)CN2CCCC2CN2C(=S)NC[C@@H]2Cc2ccc(O)cc2)C(=S)N1CCc1ccccc1` (stereo partly drawn), the activation is reported as active: 25.1%.
For `O=C(CCc1ccccc1)Nc1nc2n(n1)C(c1ccc(Cl)cc1)CC(=O)N2` (stereo not drawn), the activation was inconclusive: 16.4%.
In the case of `CC1N(C)c2cc(NC(=O)c3ccco3)c(P(=O)(Nc3ccc([N+](=O)[O-])cc3)N3CCOCC3)cc2C1(C)C` (stereo not drawn), the activation is reported as inconclusive: 21.8%.
With `O=C(Nc1ccc(N2CCCC2)cc1)C(c1ccccc1)c1ccccc1` the activation was active: 76.8%.
For `O=S(=O)(c1cccc(Cl)c1)N1CCC(c2nc3ccccc3[nH]2)CC1`, the activation was inactive: -5.11%.
In the case of `COc1ccc(/C=C/C(=O)NCc2c(C)nn(C)c2C)cc1COc1ccc(Br)cc1`, the activation is reported as inconclusive: 17%.
With `Cc1ccc(C(=O)Nc2ccc(Br)cc2)cc1S(=O)(=O)Nc1ccccn1` the activation was inconclusive: 16.2%.
For `O=C(COC(=O)c1cccc(S(=O)(=O)N2CCCC2)c1)Nc1ccccc1Cl`, the activation was inactive: -16.2%.
`COc1ccc(Cn2cc3c(-c4ccc(F)cc4)nnc-3c3cc(OC)c(OC)cc32)cc1` was tested, and the activation was active: 34.3%.
With `CC(=O)Nc1cccc(-n2nnc(SCC(=O)Nc3ccc(F)c(Cl)c3)n2)c1` the activation was inconclusive: 17%.
`COc1ccc(NC(=O)Cc2cccc(F)c2)cc1S(=O)(=O)Nc1ccccc1Cl` was tested, and the activation was inconclusive: 20.4%.
For `NC(=O)CC(NC(=O)c1ccc(Br)cc1)c1ccc(NCc2ccc(F)cc2)c([N+](=O)[O-])c1` (stereo not drawn), the activation was inconclusive: 22.2%.
For `O=C(COC(=O)c1ccccc1O)Nc1ccc2ccccc2c1`, the activation was inconclusive: 18%.
In the case of `CC1CCN(S(=O)(=O)c2ccc(NC(=O)Cn3nnc(-c4ccccc4)n3)cc2)CC1`, the activation is reported as inconclusive: 19.4%.
In the case of `O=C(NCc1cccs1)Nc1cc(Cl)ccc1Cl`, the activation is reported as inconclusive: 17.9%.
With `O=C(NNc1nc2ccc(Cl)cc2s1)c1cc(-c2cccs2)nc2ccccc12` the activation was inconclusive: 18.2%.
`NS(=O)(=O)c1ccc(NC(=O)COC(=O)c2cn(-c3ccccc3)nc2-c2ccc(F)cc2)cc1` was tested, and the activation was inconclusive: 22.4%.
`O=C(/C=C/c1ccccc1Cl)Nc1ccc2c(c1)C(=O)NC2=O` was tested, and the activation was active: 19.7%.
For `Cc1ccc(CNC(=O)COC(=O)c2cc(=O)[nH]c3ccccc23)cc1`, the activation was active: 54.7%.
With `O=C(Nc1ccccc1F)c1ccc(OCc2ccccc2)cc1` the activation was inconclusive: 16.8%.
For `O=C(CN1CSCC1=O)N1CCN(S(=O)(=O)c2cc(C(F)(F)F)ccc2Cl)CC1`, the activation was inactive: -4.38%.
`COc1ccc(Br)cc1-c1noc(-c2ccccc2)n1` was tested, and the activation was active: 27.4%.
In the case of `CCOC(=O)c1c(C)[nH]c(C(=O)COC(=O)c2oc3ccc(OC)cc3c2C)c1C`, the activation is reported as inconclusive: 20.8%.
`CC(C)(C)OC(=O)NC(CC(=O)OCc1ccccc1)C(=O)O` (stereo not drawn) was tested, and the activation was inactive: 0.235%.
With `COc1cc(C(=O)Nc2ccc(S(=O)(=O)Nc3nccc(C)n3)cc2)cc(OC)c1OC` the activation was inactive: -5.94%.
`CCOC(=O)Cn1c(=NC(=O)c2nc3ccccc3s2)sc2cc(S(N)(=O)=O)ccc21` was tested, and the activation was inconclusive: 21.6%.
In the case of `O=C(Nc1nnc(COc2ccccc2)s1)Nc1ccccc1F`, the activation is reported as inconclusive: 16.1%.
With `O=C(COC(=O)c1ccccc1O)Nc1cc(S(=O)(=O)N2CCCCCC2)ccc1Cl` the activation was inconclusive: 21.5%.
`N=C1C(c2nc(-c3ccc(Cl)cc3)cs2)=C(O)CN1NC(=O)c1ccc(O)cc1` was tested, and the activation was inconclusive: 23.7%.
For `O=C(COC(=O)c1cccc(Br)c1)Nc1cccc2c1C(=O)c1ccccc1C2=O`, the activation was inconclusive: 23.8%.
In the case of `COC(=O)c1ccc2c(c1)C(=O)/C(=C/c1ccc(C)cc1)O2`, the activation is reported as inactive: 0.195%.
For `CCOc1ccc(Nc2nc(N)c([N+](=O)[O-])c(NCc3ccccc3)n2)cc1`, the activation was inconclusive: 17.4%.
`COc1ccc(C(=O)COC(=O)c2ccc(NC(=O)c3ccccc3)cc2)cc1` was tested, and the activation was inconclusive: 16.9%.
With `CC(C)C[C@H]1CNC(=S)N1CC1CCCN1C[C@H](Cc1ccc(O)cc1)N1C[C@H](Cc2ccccc2)N(CC2CCCCC2)C1=S` (stereo partly drawn) the activation was inconclusive: 28.1%.
`Cc1cccc(CSc2nc3ccncc3n2CC(=O)Nc2cc(C)cc(C)c2)c1` was tested, and the activation was active: 32.9%.
For `COc1cc(/C=C2\SC(=S)N(NC(=O)c3ccc(O)cc3)C2=O)ccc1O`, the activation was active: 28.2%.
With `Cc1ccc(OCC(=O)Nc2c3c(nn2C(C)(C)C)CS(=O)(=O)C3)cc1` the activation was inactive: -1.6%.
For `CC(Sc1n[nH]c(N)n1)C(=O)Nc1cccc2ccccc12` (stereo not drawn), the activation was inactive: -4.78%.
For `COc1cc2c(cc1OC)CN(S(=O)(=O)c1ccc(Cl)nc1)CC2`, the activation was inconclusive: 16.1%.
In the case of `CC(C)C(=O)Nc1ccc(C(=O)N/N=C/C2CC3C=CC2C3)cc1` (stereo not drawn), the activation is reported as inactive: -11%.
For `O=C(NC(=S)Nc1cccc(NC(=S)NC(=O)c2ccco2)n1)c1ccco1`, the activation was active: 22.5%.
